Substitutions are numbered along the chain they refer to; changes in the protein carry UniProt numbers. The list shows a part of the results.
T1: RBFOX1 RRM (Homo sapiens, UniProt Q9NWB1 109-208)
T1 sequence: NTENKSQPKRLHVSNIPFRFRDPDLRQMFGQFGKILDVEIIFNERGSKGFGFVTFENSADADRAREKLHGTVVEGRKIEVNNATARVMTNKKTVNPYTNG

B1: GUAGGAU (DNA:RNA)
RNA: GGGAGACCGGAAUUCAGAUUGUCCGUAGGAUUUAAAUCCCGUCGUAGCCACCA
DNA 1: CAATCTGAATTCCGGTCTCCC
DNA 2: TGGTGGCTACGACGGGATT
B2: CGGUUAA (DNA:RNA)
RNA: B1 RNA with G25C, U26G, A27G, G28U, G29U, U31A
DNA 1: CAATCTGAATTCCGGTCTCCC
DNA 2: TGGTGGCTACGACGGGATT
B3: AUUGAGA (DNA:RNA)
RNA: B1 RNA with G25A, A27U, G29A, A30G, U31A
DNA 1: CAATCTGAATTCCGGTCTCCC
DNA 2: TGGTGGCTACGACGGGATT
B4: CCAUGGU (DNA:RNA)
RNA: B1 RNA with G25C, U26C, G28U, A30G
DNA 1: CAATCTGAATTCCGGTCTCCC
DNA 2: TGGTGGCTACGACGGGATT
B5: UCAUGCA (DNA:RNA)
RNA: B1 RNA with G25U, U26C, G28U, A30C, U31A
DNA 1: CAATCTGAATTCCGGTCTCCC
DNA 2: TGGTGGCTACGACGGGATT
B6: AGCUUGG (DNA:RNA)
RNA: GGGAGACCGGAAUUCAGAUUGUCCAGCUUGGUUAAAUCCCGUCGUAGCCACCA
DNA 1: CAATCTGAATTCCGGTCTCCC
DNA 2: TGGTGGCTACGACGGGATT
B7: UAGCCCU (DNA:RNA)
RNA: B1 RNA with G25U, U26A, A27G, G28C, G29C, A30C
DNA 1: CAATCTGAATTCCGGTCTCCC
DNA 2: TGGTGGCTACGACGGGATT
B8: AGAGGGG (DNA:RNA)
RNA: B6 RNA with C27A, U28G, U29G
DNA 1: CAATCTGAATTCCGGTCTCCC
DNA 2: TGGTGGCTACGACGGGATT
B9: CCUGCCG (DNA:RNA)
RNA: B6 RNA with A25C, G26C, C27U, U28G, U29C, G30C
DNA 1: CAATCTGAATTCCGGTCTCCC
DNA 2: TGGTGGCTACGACGGGATT
B10: GCGUGCC (DNA:RNA)
RNA: B1 RNA with U26C, A27G, G28U, A30C, U31C
DNA 1: CAATCTGAATTCCGGTCTCCC
DNA 2: TGGTGGCTACGACGGGATT
B11: GUUCUCA (DNA:RNA)
RNA: B1 RNA with A27U, G28C, G29U, A30C, U31A
DNA 1: CAATCTGAATTCCGGTCTCCC
DNA 2: TGGTGGCTACGACGGGATT
B12: AGGCCGU (DNA:RNA)
RNA: B6 RNA with C27G, U28C, U29C, G31U
DNA 1: CAATCTGAATTCCGGTCTCCC
DNA 2: TGGTGGCTACGACGGGATT
B13: GUCUUAA (DNA:RNA)
RNA: B6 RNA with A25G, G26U, G30A, G31A
DNA 1: CAATCTGAATTCCGGTCTCCC
DNA 2: TGGTGGCTACGACGGGATT
B14: ACCAGGC (DNA:RNA)
RNA: B6 RNA with G26C, U28A, U29G, G31C
DNA 1: CAATCTGAATTCCGGTCTCCC
DNA 2: TGGTGGCTACGACGGGATT
B15: ACUAAAG (DNA:RNA)
RNA: B6 RNA with G26C, C27U, U28A, U29A, G30A
DNA 1: CAATCTGAATTCCGGTCTCCC
DNA 2: TGGTGGCTACGACGGGATT
B16: ACGCGUU (DNA:RNA)
RNA: B1 RNA with G25A, U26C, A27G, G28C, A30U
DNA 1: CAATCTGAATTCCGGTCTCCC
DNA 2: TGGTGGCTACGACGGGATT
B17: UCGUCAG (DNA:RNA)
RNA: B6 RNA with A25U, G26C, C27G, U29C, G30A
DNA 1: CAATCTGAATTCCGGTCTCCC
DNA 2: TGGTGGCTACGACGGGATT
B18: CUGGGGG (DNA:RNA)
RNA: B1 RNA with G25C, A27G, A30G, U31G
DNA 1: CAATCTGAATTCCGGTCTCCC
DNA 2: TGGTGGCTACGACGGGATT
B19: AUUCAGA (DNA:RNA)
RNA: B6 RNA with G26U, C27U, U28C, U29A, G31A
DNA 1: CAATCTGAATTCCGGTCTCCC
DNA 2: TGGTGGCTACGACGGGATT
B20: AUGACCA (DNA:RNA)
RNA: B6 RNA with G26U, C27G, U28A, U29C, G30C, G31A
DNA 1: CAATCTGAATTCCGGTCTCCC
DNA 2: TGGTGGCTACGACGGGATT
B21: GCGUGUU (DNA:RNA)
RNA: B1 RNA with U26C, A27G, G28U, A30U
DNA 1: CAATCTGAATTCCGGTCTCCC
DNA 2: TGGTGGCTACGACGGGATT
B22: ACGACGC (DNA:RNA)
RNA: B6 RNA with G26C, C27G, U28A, U29C, G31C
DNA 1: CAATCTGAATTCCGGTCTCCC
DNA 2: TGGTGGCTACGACGGGATT
B23: CGAUGGA (DNA:RNA)
RNA: B6 RNA with A25C, C27A, U29G, G31A
DNA 1: CAATCTGAATTCCGGTCTCCC
DNA 2: TGGTGGCTACGACGGGATT
B24: GGCUCUU (DNA:RNA)
RNA: B6 RNA with A25G, U29C, G30U, G31U
DNA 1: CAATCTGAATTCCGGTCTCCC
DNA 2: TGGTGGCTACGACGGGATT
B25: UGAUUCA (DNA:RNA)
RNA: B6 RNA with A25U, C27A, G30C, G31A
DNA 1: CAATCTGAATTCCGGTCTCCC
DNA 2: TGGTGGCTACGACGGGATT
B26: GAUCUUC (DNA:RNA)
RNA: B6 RNA with A25G, G26A, C27U, U28C, G30U, G31C
DNA 1: CAATCTGAATTCCGGTCTCCC
DNA 2: TGGTGGCTACGACGGGATT
B27: GACAAUU (DNA:RNA)
RNA: B1 RNA with U26A, A27C, G28A, G29A, A30U
DNA 1: CAATCTGAATTCCGGTCTCCC
DNA 2: TGGTGGCTACGACGGGATT
B28: GCGACUU (DNA:RNA)
RNA: B1 RNA with U26C, A27G, G28A, G29C, A30U
DNA 1: CAATCTGAATTCCGGTCTCCC
DNA 2: TGGTGGCTACGACGGGATT
B29: UCCCCUG (DNA:RNA)
RNA: B6 RNA with A25U, G26C, U28C, U29C, G30U
DNA 1: CAATCTGAATTCCGGTCTCCC
DNA 2: TGGTGGCTACGACGGGATT
B30: CGCAAGU (DNA:RNA)
RNA: B6 RNA with A25C, U28A, U29A, G31U
DNA 1: CAATCTGAATTCCGGTCTCCC
DNA 2: TGGTGGCTACGACGGGATT
B31: UCUGUUC (DNA:RNA)
RNA: B6 RNA with A25U, G26C, C27U, U28G, G30U, G31C
DNA 1: CAATCTGAATTCCGGTCTCCC
DNA 2: TGGTGGCTACGACGGGATT

Each binder was assayed against T1, RBFOX1 RRM (assay: EMSA; HiTS-Eq, 1 nM pool, 10 min; buffer printed only for the single-RNA assays: 10 mM Tris pH 7.5, 150 mM NaCl, 3.4 mM EDTA, 0.001% NP-40, 30 C). Settings: tags: His6 N-terminal (pET28a); label: 5' 32P.
How it was run: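 Purified wild-type or mutant RbFox RRM at increasing concentrations was equilibrated with 1 nM of 5′-radiolabelled RNA carrying 7 randomized nucleotides for 10 min in 50 µL. Unbound RNA was separated by 8% native PAGE and sequenced. Relative association constants came from read-count changes of each RNA species compared with the control reaction, normalised to the cognate motif.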
In the case of B1, the binding signal is reported as 0.00394 KA relative to UGCAUGU.
In the case of B2, the binding signal is reported as 0.00507 KA relative to UGCAUGU.
With B3 the binding signal was 0.00825 KA relative to UGCAUGU.
In the case of B4, the binding signal is reported as 0.0122 KA relative to UGCAUGU.
With B5 the binding signal was 0.0145 KA relative to UGCAUGU.
In the case of B6, the binding signal is reported as 0.0184 KA relative to UGCAUGU.
With B7 the binding signal was 0.00345 KA relative to UGCAUGU.
With B8 the binding signal was 0.0111 KA relative to UGCAUGU.
In the case of B9, the binding signal is reported as 0.01 KA relative to UGCAUGU.
For B10, the binding signal was 0.0229 KA relative to UGCAUGU.
With B11 the binding signal was 0.0092 KA relative to UGCAUGU.
For B12, the binding signal was 0.0103 KA relative to UGCAUGU.
For B13, the binding signal was 0.00558 KA relative to UGCAUGU.
With B14 the binding signal was 0.00626 KA relative to UGCAUGU.
In the case of B15, the binding signal is reported as 0.00323 KA relative to UGCAUGU.
B16 was tested, and the binding signal was 0.0089 KA relative to UGCAUGU.
For B17, the binding signal was 0.0131 KA relative to UGCAUGU.
In the case of B18, the binding signal is reported as 0.00932 KA relative to UGCAUGU.
B19 was tested, and the binding signal was 0.0101 KA relative to UGCAUGU.
For B20, the binding signal was 0.00337 KA relative to UGCAUGU.
B21 was tested, and the binding signal was 0.0219 KA relative to UGCAUGU.
For B22, the binding signal was 0.00275 KA relative to UGCAUGU.
With B23 the binding signal was 0.00442 KA relative to UGCAUGU.
For B24, the binding signal was 0.01 KA relative to UGCAUGU.
For B25, the binding signal was 0.0154 KA relative to UGCAUGU.
With B26 the binding signal was 0.0194 KA relative to UGCAUGU.
B27 was tested, and the binding signal was 0.00391 KA relative to UGCAUGU.
For B28, the binding signal was 0.0138 KA relative to UGCAUGU.
For B29, the binding signal was 0.00829 KA relative to UGCAUGU.
For B30, the binding signal was 0.014 KA relative to UGCAUGU.
B31 was tested, and the binding signal was 0.0184 KA relative to UGCAUGU.

— PMC9911399, “Two distinct binding modes provide the RNA-binding protein RbFox with extraordinary sequence specificity”
